# Reference: PubChem BioAssay (NCATS)
# Several values for one entry are separate records, joined by “and”; a condition that tells them apart may be missing. Identical values can stand only once. The shares of active, inactive and inconclusive entries below differ from those in the screen. Potencies beside an inconclusive call are fits to weak or partial responses and may not hold up. Activity calls are given as the source filed them. Calls come from the whole dose curve; as a rule, active = well fitted inhibition curve with a large enough effect; inconclusive = small, poorly fitted or top-dose-only effect; inactive = no such curve, though single readings can be large or run the other way.
# Target: Retinaldehyde dehydrogenase 3 (Homo sapiens) (UniProt P47895)
# Test: qHTS for Inhibitors of the Aldehyde Dehydrogenase Family (ALDH1A3) Confirmatory screens (AID 2061311); note: nearly all actives have a fitted effect of over 60% in size
# Conditions: ALDH inhibition qHTS; activity change, negative = inhibition: at 46 µM (top of the series); series mostly up to 46 µM
# Potency is the fitted concentration of half-maximal effect; tags give direction and shape of the fitted curve.
row,SMILES,Potency
1,CN(C)C(=O)/N=N/C(=O)N(C)C,"inconclusive: 15.9 µM [inhibitor, partial curve, poor fit]"
2,NC(=O)C1CCN(c2nc(-c3ccccc3N)cs2)CC1,"inconclusive: 15.9 µM [inhibitor, partial curve]"
3,COc1ccc(NC(=O)O[C@@H]2CO[C@H]3[C@@H]2OC[C@@H]3n2nnnc2SCc2ccco2)cc1,"inconclusive: 12.9 µM [inhibitor, partial curve]"
4,COc1ccc2c(c1)O[C@H](O[C@@H]1O[C@H](CO)[C@@H](O)[C@H](O)[C@H]1O)C(=O)N2,active: 13.9 µM
5,O=C(c1cccc(Cl)c1F)N1CCN(Cc2cccc(Nc3nccs3)n2)CC1,active: 35.5 µM
6,COc1ccc(-c2nc(CNS(=O)(=O)c3ccc(F)cc3)cs2)cc1,inactive
7,Cc1ccc2c(c1)C(N1CCN(C)CC1)=Nc1cccnc1N2,"inconclusive: 20.1 µM [inhibitor, partial curve]"
8,O=C(O)c1cc(C(F)(F)F)ccc1N1CC[C@H](OCc2ccccn2)C1,inactive
9,COc1ccc(O)c(C2Nc3ccccc3C(=O)N2Cc2ccccc2)c1 (stereo not drawn),"inconclusive: 28.3 µM [inhibitor, partial curve, poor fit]"
10,COc1cccc(-c2cccc(C(=O)N3CCN(C(=O)c4ccc(C)cc4)CC3)c2)c1,inactive
11,Fc1ccc(CSc2nc3ncc(Br)cc3[nH]2)cc1,inactive
12,NC(=O)C1CCN(c2ncc(-c3ccc4c(c3)OCO4)s2)CC1,active: 17.8 µM
13,O=C(C#Cc1ccccc1)NC1CCCc2c1cnn2-c1ccc(F)cc1F (stereo not drawn),inactive
14,COc1cccc(C2=Nn3c(nnc3-c3ccccc3C)SC2)c1,active: 22.4 µM
15,Cc1cc2c(s1)c1cnn(Cc3ccc(-n4cncn4)cc3)c(=O)c1n2C,"inconclusive: 25.2 µM [inhibitor, partial curve]"
16,O=C(O)c1ccc(S(=O)(=O)N[C@H](Cc2ccc(O)cc2)C(=O)O)cc1,"inconclusive: 20.1 µM [inhibitor, partial curve, poor fit]"
17,NC(=O)C1CCN(c2nc(-c3cc4ccccc4o3)cs2)CC1,inactive
18,Cc1cc(C)c2c(c1)C(N(Cc1cc(C(F)(F)F)cc(C(F)(F)F)c1)c1nnn(C)n1)CCCN2CC1CCC(C(=O)O)CC1 (stereo not drawn),"inconclusive: 20.1 µM [inhibitor, partial curve] and inconclusive: 7.94 µM [inhibitor, partial curve, poor fit]"
19,CN(CCCNC(=O)c1ccc2nc3c(c(Cl)c2c1)CCCC3)Cc1ccccc1,active: 8.96 µM
20,O=c1c2ccccc2nc2sc(Nc3cccc(N4CCNCC4)c3)nn12,"inconclusive: 28.3 µM [inhibitor, partial curve]"

# Target: Retinaldehyde dehydrogenase 3 (Homo sapiens) (UniProt P47895)
# Test: qHTS for Inhibitors of the Aldehyde Dehydrogenase Family (ALDH1A3) Validation screen (AID 2061312); note: nearly all actives have a fitted effect of over 45% in size
# Conditions: ALDH1A3 enzyme inhibition qHTS validation, fluorescence; activity change, negative = inhibition: at 84.7 µM (top of the series)
row,SMILES,Potency
1,CN(C)C(=O)/N=N/C(=O)N(C)C,"inconclusive: 14.1 µM [inhibitor, partial curve]"
2,O=C(c1cccc(Cl)c1F)N1CCN(Cc2cccc(Nc3nccs3)n2)CC1,"inconclusive: 20 µM [inhibitor, full curve, poor fit]"
3,Cn1c(N2CCCCS2(=O)=O)nc(C(=O)NCc2ccc(F)cc2)c(O)c1=O,"inconclusive: 2.24 µM [inhibitor, full curve, poor fit]"
4,Cc1ccc2c(c1)C(N1CCN(C)CC1)=Nc1cccnc1N2,"inconclusive: 3.16 µM [inhibitor, full curve]"
5,CCCCNC(=O)[C@@H]1Cc2ccccc2N1C(=O)[C@@H](N)CC,"inconclusive: 2.51 µM [inhibitor, full curve, poor fit]"
6,Cc1cc(C)c2c(c1)C(N(Cc1cc(C(F)(F)F)cc(C(F)(F)F)c1)c1nnn(C)n1)CCCN2CC1CCC(C(=O)O)CC1 (stereo not drawn),active: 2.82 µM

# Target: Retinal dehydrogenase 2 (Homo sapiens) (UniProt O94788)
# Test: qHTS for Inhibitors of the Aldehyde Dehydrogenase Family (ALDH1A2) Confirmation screens (AID 2061314); note: nearly all actives have a fitted effect of over 65% in size
# Conditions: ALDH1A2 enzyme inhibition qHTS confirmation; series mostly up to 45.9 µM
row,SMILES,Potency
1,Cc1ccc(CN(C)c2ccc(N3CCN(C)CC3)cc2)cc1,"inconclusive: 3.18 µM [inhibitor, partial curve]"
2,NC(=O)C1CCN(c2nc(-c3ccccc3N)cs2)CC1,"inconclusive: 20.1 µM [inhibitor, partial curve, poor fit]"
3,COc1ccc([N+](=O)[O-])c(S(=O)(=O)c2ccc(Cl)cc2)n1,active: 15.8 µM
4,O=C1c2ccccc2NC(c2ccc(-c3cccc([N+](=O)[O-])c3)o2)N1O (stereo not drawn),active: 2.52 µM
5,Cc1cc(-c2nnc3n2CCCCC3)c(C)n1-c1cccc2ccccc12,"inconclusive: 12.7 µM [inhibitor, partial curve]"
6,CC(=O)Nc1sc2c(c1-c1ccc(N(C)C)cc1)CCNC2,"inconclusive: 20.1 µM [inhibitor, partial curve, poor fit]"
7,N#Cc1cccnc1SC1=NS(=O)(=O)c2ccccc21,"inconclusive: 22.5 µM [inhibitor, partial curve]"
8,COc1ccc(NC(=O)O[C@@H]2CO[C@H]3[C@@H]2OC[C@@H]3n2nnnc2SCc2ccco2)cc1,"inconclusive: 0.178 µM [inhibitor, full curve, poor fit]"
9,COc1ccc(C2Nc3ccccc3C(=O)N2CC(C)(C)C)cc1COc1ccc(NC(C)=O)cc1 (stereo not drawn),active: 31.6 µM
10,COc1ccc2c(c1)O[C@H](O[C@@H]1O[C@H](CO)[C@@H](O)[C@H](O)[C@H]1O)C(=O)N2,"inconclusive: 7.83 µM [inhibitor, partial curve, poor fit]"
11,O=C(c1cccc(Cl)c1F)N1CCN(Cc2cccc(Nc3nccs3)n2)CC1,"inconclusive: 15.9 µM [inhibitor, partial curve]"
12,Cn1c(N2CCCCS2(=O)=O)nc(C(=O)NCc2ccc(F)cc2)c(O)c1=O,"inconclusive: 28.3 µM [inhibitor, partial curve]"
13,COc1ccc(-c2nc(CNS(=O)(=O)c3ccc(F)cc3)cs2)cc1,"inconclusive: 12.9 µM [inhibitor, partial curve]"
14,O=C(O)c1cc(C(F)(F)F)ccc1N1CC[C@H](OCc2ccccn2)C1,"inconclusive: 22.5 µM [inhibitor, single point]"
15,CC(C)(C)OC(=O)N1CCN(c2ccc(NCc3ccc4c(-c5ccc(F)cc5)cc(=O)oc4c3)cc2)CC1,"inconclusive: 17.9 µM [inhibitor, partial curve, poor fit]"
16,CC(=O)Nc1sc2c(c1-c1cccc(F)c1)CCNC2,active: 20.1 µM

row,SMILES,Potency
1,COc1ccc(O)c(C2Nc3ccccc3C(=O)N2Cc2ccccc2)c1 (stereo not drawn),"inconclusive: 4.49 µM [inhibitor, partial curve, poor fit]"
2,COc1cccc(-c2cccc(C(=O)N3CCN(C(=O)c4ccc(C)cc4)CC3)c2)c1,inactive
3,Fc1ccc(CSc2nc3ncc(Br)cc3[nH]2)cc1,inactive
4,NC(=O)C1CCN(c2ncc(-c3ccc4c(c3)OCO4)s2)CC1,inactive
5,CC(=O)Nc1sc2c(c1-c1csc3ccccc13)CCNC2,active: 15.9 µM
6,COc1cccc(C2=Nn3c(nnc3-c3ccccc3C)SC2)c1,active: 17.8 µM
7,Oc1ccc(Oc2ccccc2F)c2cccnc12,active: 2.01 µM
8,O=C(Nc1cc(Cc2ccccc2)ccn1)c1ccc(-c2cccc([N+](=O)[O-])c2)o1,active: 5.01 µM
9,Cc1cc2c(s1)c1cnn(Cc3ccc(-n4cncn4)cc3)c(=O)c1n2C,"inconclusive: 1 µM [inhibitor, full curve]"
10,CCn1cnc2c(Nc3ccc(CC(=O)N=C(N)N)cc3)nc(C#N)nc21,"inconclusive: 22.5 µM [inhibitor, partial curve]"
11,COc1ccc(C(=O)N(Cc2ccco2)Cc2ccco2)c(O)c1,active: 17.9 µM
12,O=C(O)c1ccc(S(=O)(=O)N[C@H](Cc2ccc(O)cc2)C(=O)O)cc1,"inconclusive: 15.9 µM [inhibitor, partial curve]"
13,NC(=O)C1CCN(c2nc(-c3cc4ccccc4o3)cs2)CC1,"inconclusive: 20.1 µM [inhibitor, partial curve]"
14,Cc1cc(C)c2c(c1)C(N(Cc1cc(C(F)(F)F)cc(C(F)(F)F)c1)c1nnn(C)n1)CCCN2CC1CCC(C(=O)O)CC1 (stereo not drawn),"inconclusive: 0.251 µM [inhibitor, full curve]"
15,Cc1noc(C)c1-c1cccc(-c2nn3c(=O)cc(N4CCNCC4)nc3s2)c1,active: 6.31 µM
16,CN(CCCNC(=O)c1ccc2nc3c(c(Cl)c2c1)CCCC3)Cc1ccccc1,active: 7.12 µM
